Results: the BET-seq Pho4 binding data (Le et al. 2018)
The list shows a part of the results. Values were computed here from the reads of four pooled replicates and scatter widely.

biological target: T1, Pho4 (S. cerevisiae) (UniProt P07270); experiment: relative binding free energy (BET-seq); higher = weaker binding; conditions: reference: library average
T1 sequence: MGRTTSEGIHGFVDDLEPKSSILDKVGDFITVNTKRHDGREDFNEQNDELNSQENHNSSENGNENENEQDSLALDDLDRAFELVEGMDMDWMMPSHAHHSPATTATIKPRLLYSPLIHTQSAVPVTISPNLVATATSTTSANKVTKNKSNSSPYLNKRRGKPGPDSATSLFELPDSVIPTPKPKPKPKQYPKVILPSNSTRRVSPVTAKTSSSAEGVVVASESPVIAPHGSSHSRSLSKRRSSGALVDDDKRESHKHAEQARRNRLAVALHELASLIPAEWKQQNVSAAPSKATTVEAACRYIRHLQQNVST

Sequence	relative binding free energy
TTCAACACGTGATGGG	0.21 kcal/mol
TTGGTCACGTGATAGT	0.27 kcal/mol
TTTCACACGTGTTTGT	0.03 kcal/mol
AGCGGCACGTGTGATT	-0.07 kcal/mol
TAATGCACGTGATGAT	0.18 kcal/mol
AATATCACGTGGGTTA	0.11 kcal/mol
TGTAACACGTGTTTGT	-0.12 kcal/mol
AGTAACACGTGTTTGG	0.01 kcal/mol
GTTTTCACGTGTCGTT	0.32 kcal/mol
CGAAGCACGTGTTTTG	-0.07 kcal/mol
AGTGTCACGTGGCTAT	-0.05 kcal/mol
TTAAACACGTGTTCTG	-0.1 kcal/mol
TACGGCACGTGCGGTA	-0.13 kcal/mol
TTTCACACGTGTTGTC	0.14 kcal/mol
ATTAGCACGTGAGATT	0.22 kcal/mol
GTGTCCACGTGTGGTA	-0.03 kcal/mol
AGGTACACGTGATAGT	0.11 kcal/mol
TGTGTCACGTGATGTC	0.06 kcal/mol
TTGGACACGTGTAGGG	0.2 kcal/mol
TTATGCACGTGGGGAG	-0.14 kcal/mol
GTACACACGTGTGGAG	0.04 kcal/mol
TGGGCCACGTGTGGAT	0.09 kcal/mol
CTTGTCACGTGGTCTG	0 kcal/mol
TGCAGCACGTGGTATT	-0.06 kcal/mol
AGAAGCACGTGTTGCG	-0.08 kcal/mol
GTAGGCACGTGAACTG	0.03 kcal/mol

Sequence	relative binding free energy
AATTACACGTGTGGAG	0.23 kcal/mol
TTGGCCACGTGGTACG	-0.03 kcal/mol
GGTTACACGTGTAGGA	0.18 kcal/mol
TGCGCCACGTGTGGGT	0 kcal/mol
GAGGTCACGTGGTTGT	0.17 kcal/mol
CTTAACACGTGTTGAT	0.12 kcal/mol
GAGTGCACGTGGATTT	0.16 kcal/mol
GGGTTCACGTGTGAAA	0.28 kcal/mol
TTACGCACGTGGTCGT	-0.22 kcal/mol
GGAGCCACGTGTTGTG	0 kcal/mol
ATTCTCACGTGAGGTG	0.33 kcal/mol
AGGGACACGTGGGGTA	-0.31 kcal/mol
TTTTTCACGTGCAAGA	0.28 kcal/mol
TGGTTCACGTGTTAAG	0.32 kcal/mol
CTTAGCACGTGGGGCT	-0.19 kcal/mol
CTATTCACGTGTTAGG	0.18 kcal/mol
GTATTCACGTGGTTTG	0.21 kcal/mol
AGCTTCACGTGTGGGG	0.27 kcal/mol
AGGCACACGTGTTTTA	0.08 kcal/mol
TAGGTCACGTGTAGCT	0.21 kcal/mol
CTAGCCACGTGTGGGG	0.04 kcal/mol
ATATCCACGTGTGGAG	0.16 kcal/mol
AGACGCACGTGGCAGG	-0.04 kcal/mol
AGTTGCACGTGTTGGT	0.08 kcal/mol
CTGTGCACGTGGAGTT	-0.05 kcal/mol
CAATGCACGTGTGGTT	0.08 kcal/mol

Sequence	relative binding free energy
CGTAGCACGTGAGGTT	0.05 kcal/mol
TCCTGCACGTGTTGTT	-0.04 kcal/mol
GCTGACACGTGGGGTA	-0.23 kcal/mol
AACTGCACGTGTGTGT	0.02 kcal/mol
GGCGACACGTGGAGTG	0.01 kcal/mol
ATTTACACGTGTAGTG	0.02 kcal/mol
GTTTTCACGTGATTTC	0.41 kcal/mol
GATGTCACGTGTATAA	0.21 kcal/mol
TCGTTCACGTGTAGTT	0.22 kcal/mol
GTAGTCACGTGATTAG	0.25 kcal/mol
TATATCACGTGTAAAA	0.38 kcal/mol
GTAGGCACGTGCGGAT	-0.05 kcal/mol
TCGTACACGTGTGGTA	0.22 kcal/mol
TGTTCCACGTGAGTTG	0.19 kcal/mol
TCGGGCACGTGTGGAG	-0.04 kcal/mol
TAAGGCACGTGGGCAT	-0.23 kcal/mol
ACATTCACGTGGAGTG	0.1 kcal/mol
AGTATCACGTGGGCGA	-0.09 kcal/mol
TGCAGCACGTGGGGCG	-0.34 kcal/mol
AGGAGCACGTGGCTGG	-0.11 kcal/mol
CGGAGCACGTGGAGGG	-0.19 kcal/mol
AATAGCACGTGGGAAT	-0.13 kcal/mol
TAGTTCACGTGTCGTG	0.22 kcal/mol
TTTTTCACGTGATTCG	0.29 kcal/mol
AAGAGCACGTGAGTTT	0.1 kcal/mol
TTTGTCACGTGATCTA	0.1 kcal/mol

Sequence	relative binding free energy
TGGGCCACGTGGGCCT	-0.12 kcal/mol
ACAGTCACGTGTATGT	0.09 kcal/mol
CTTGGCACGTGCTGGG	-0.14 kcal/mol
TTGGGCACGTGGATAT	0.04 kcal/mol
GATTTCACGTGTAAGT	0.46 kcal/mol
AGGCTCACGTGCTTGT	0.22 kcal/mol
TGTCACACGTGGTGTA	0.03 kcal/mol
TTCGGCACGTGAAGGG	0.15 kcal/mol
CGGTTCACGTGGGAGC	0.27 kcal/mol
GGCTTCACGTGAGTAT	0.5 kcal/mol
TTTATCACGTGGTTGT	0.15 kcal/mol
TGATACACGTGTTGAA	0.11 kcal/mol
TTAGGCACGTGGATTC	-0.04 kcal/mol
AGGTACACGTGTTGAT	0.08 kcal/mol
GGAAGCACGTGTAGTA	-0.1 kcal/mol
TGTGTCACGTGGCATA	-0.04 kcal/mol
TATAGCACGTGGGGGG	-0.25 kcal/mol
TTAGGCACGTGGTTAG	-0.13 kcal/mol
TGTGACACGTGGTGGT	-0.07 kcal/mol
TGGGTCACGTGGGATG	0.12 kcal/mol
TATATCACGTGGATCT	0.2 kcal/mol
TTAGTCACGTGTCTTG	-0.03 kcal/mol
TCGTTCACGTGTCTAG	0.46 kcal/mol
ATTAACACGTGGCAGG	0.08 kcal/mol
AGAACCACGTGAGGGG	0.16 kcal/mol
TGATGCACGTGTTGGA	-0.03 kcal/mol

Sequence	relative binding free energy
ATTTCCACGTGTGTAG	0.09 kcal/mol
AGTTGCACGTGTAAGC	0.13 kcal/mol
TGGATCACGTGGTCAT	0.19 kcal/mol
GTTAGCACGTGGGGTA	-0.18 kcal/mol
ATGGGCACGTGAAGAG	-0.03 kcal/mol
TGGGGCACGTGCGCGA	-0.46 kcal/mol
GATGCCACGTGGAGGG	-0.02 kcal/mol
AGTTTCACGTGGTAGC	0.21 kcal/mol
TTGTGCACGTGGTCTC	-0.12 kcal/mol
TTGTCCACGTGAGGCG	0.27 kcal/mol
GCAGGCACGTGGTGTG	-0.16 kcal/mol
GATCACACGTGGAGGT	0.14 kcal/mol
TTAGACACGTGTGCGG	-0.05 kcal/mol
ACGGGCACGTGTATTT	0.01 kcal/mol
CGTCTCACGTGGGGGC	-0.01 kcal/mol
GTGGCCACGTGGTTGG	-0.03 kcal/mol
TGGAGCACGTGTGCTA	-0.1 kcal/mol
AAGGCCACGTGGGGTG	-0.18 kcal/mol
GGGTTCACGTGATGTG	0.46 kcal/mol
GATGTCACGTGTTTGC	0.08 kcal/mol
CGGGGCACGTGTTCGG	-0.15 kcal/mol
GTATACACGTGATTAG	0.23 kcal/mol
TTTAACACGTGTGAAT	0.08 kcal/mol
TCGGTCACGTGTTTGG	0.14 kcal/mol
TAGGTCACGTGGGGAG	0.03 kcal/mol
TGACTCACGTGGGGTC	0.01 kcal/mol

Sequence	relative binding free energy
AATGACACGTGAGTGG	0.26 kcal/mol
TGGCACACGTGTGTGC	0.01 kcal/mol
GCTTGCACGTGCGTTT	0.01 kcal/mol
GGTGTCACGTGTGGTC	0.26 kcal/mol
TTGTTCACGTGTGGCG	0.26 kcal/mol
TGATACACGTGCTAGG	0.04 kcal/mol
TATAGCACGTGATAGG	-0.03 kcal/mol
GTCGGCACGTGCTGTT	0.01 kcal/mol
CGATCCACGTGTTGGT	0.06 kcal/mol
TGGCTCACGTGCGTGG	0.06 kcal/mol
GTGTCCACGTGCAGTG	0.01 kcal/mol
TAAATCACGTGGAATT	0.19 kcal/mol
GCGGTCACGTGGTGTG	0.05 kcal/mol
GTGATCACGTGGGTTA	-0.02 kcal/mol
TGATGCACGTGAGTCG	0.13 kcal/mol
ACCGTCACGTGTGTGG	0 kcal/mol
GAGGGCACGTGGTTAG	-0.04 kcal/mol
TGCGCCACGTGTGGAG	-0.01 kcal/mol
AAGGGCACGTGGTGCT	-0.16 kcal/mol
GAGGGCACGTGGGAGA	-0.11 kcal/mol
AGGAACACGTGGGTCG	-0.23 kcal/mol
TAACTCACGTGATTGT	0.27 kcal/mol
TTATACACGTGGATGT	-0.13 kcal/mol
GTGACCACGTGGGGTT	-0.02 kcal/mol
GTAGACACGTGATTAT	0.25 kcal/mol
AGTGGCACGTGTAAAG	0 kcal/mol

Sequence	relative binding free energy
TCAGTCACGTGCTTTT	0.04 kcal/mol
TTAAGCACGTGCTAGG	-0.17 kcal/mol
GGCATCACGTGTTGAG	0.19 kcal/mol
TTAGGCACGTGTCGTC	-0.01 kcal/mol
ATTGTCACGTGGGGAC	0.01 kcal/mol
GTGTTCACGTGGATTC	0.29 kcal/mol
GTCTACACGTGGTTGA	0.1 kcal/mol
TATATCACGTGATGTA	0.12 kcal/mol
TCATACACGTGCGGTT	0.09 kcal/mol
GTCTTCACGTGTGGTA	0.33 kcal/mol
ATGGGCACGTGTTATA	-0.09 kcal/mol
TGCGACACGTGAGGGT	0.13 kcal/mol
GGTCGCACGTGAGATG	0.27 kcal/mol
TTCTTCACGTGTAAGT	0.27 kcal/mol
GGGGCCACGTGAGTAG	0.18 kcal/mol
ATGGGCACGTGTGGAA	-0.14 kcal/mol
TCCTTCACGTGGGGGG	0.12 kcal/mol
TGGTCCACGTGGGCAG	-0.25 kcal/mol
TTAGTCACGTGCCGGG	0.05 kcal/mol
GGTGCCACGTGGGTTA	-0.15 kcal/mol
CCTAACACGTGGTGGG	0.11 kcal/mol
ATTGTCACGTGAGCTT	0.32 kcal/mol
ATTCTCACGTGTAGGT	0.24 kcal/mol
ATTGGCACGTGCGGTA	-0.2 kcal/mol
CGGTGCACGTGAGCAG	0.25 kcal/mol
TAAATCACGTGTAAGG	0.22 kcal/mol

Sequence	relative binding free energy
TACATCACGTGGGTTA	-0.15 kcal/mol
CGTTTCACGTGGGTTC	0.18 kcal/mol
GCGGACACGTGGTTTG	-0.09 kcal/mol
GTCGTCACGTGTGTAT	0.16 kcal/mol
GGAGGCACGTGATGTA	-0.05 kcal/mol
GGGTGCACGTGTTTTG	0.04 kcal/mol
GGGCGCACGTGTGATT	0.08 kcal/mol
GGATGCACGTGGTAAT	-0.06 kcal/mol
AGGAGCACGTGTATAG	-0.07 kcal/mol
ATTTGCACGTGGGGTT	0 kcal/mol
GATGTCACGTGTAGTA	0.06 kcal/mol
TTTGCCACGTGGGGTG	-0.17 kcal/mol
CGTTACACGTGGGGGC	0.01 kcal/mol
ACTGTCACGTGTGGTT	0.1 kcal/mol
CTAGGCACGTGGTTGA	-0.25 kcal/mol
GGCTTCACGTGTTGGT	0.22 kcal/mol
TTGTCCACGTGTGTTT	0.14 kcal/mol
TATGCCACGTGAAGGT	0.13 kcal/mol
AGGTACACGTGACGGT	0.16 kcal/mol
TCTGTCACGTGGTCTG	-0.15 kcal/mol
GATTACACGTGAGGGT	0.32 kcal/mol
TAGTCCACGTGATGTT	0.26 kcal/mol
ATTAACACGTGGGTTA	-0.02 kcal/mol
AGGTCCACGTGGGAAT	0.06 kcal/mol
CGGGGCACGTGTAGTA	-0.18 kcal/mol
CGGGACACGTGAGGGG	0.21 kcal/mol

Sequence	relative binding free energy
TGTACCACGTGTTTGA	-0.06 kcal/mol
TTGTGCACGTGGGTCA	-0.24 kcal/mol
GCAGGCACGTGCGTTT	0 kcal/mol
AGTTGCACGTGAAGAG	0.16 kcal/mol
TTAGTCACGTGATGGT	0.28 kcal/mol
GACAGCACGTGGTGGG	-0.06 kcal/mol
GGTGTCACGTGACATG	0.23 kcal/mol
GTTTTCACGTGCAGTT	0.38 kcal/mol
TGTATCACGTGGCTTG	0.09 kcal/mol
TGGGGCACGTGTTCGA	-0.03 kcal/mol
TATCTCACGTGTTCAT	0.31 kcal/mol
CGTTTCACGTGTTTCG	0.19 kcal/mol
TTGGTCACGTGAATAG	0.27 kcal/mol
TGGGTCACGTGGGGGT	0.04 kcal/mol
TTTGTCACGTGATTTC	0.23 kcal/mol
ATTAGCACGTGTGGCT	-0.15 kcal/mol
CTTTTCACGTGTGCTT	0.24 kcal/mol
TGGGACACGTGTTTAT	0.02 kcal/mol
TCTGGCACGTGTAGTA	-0.12 kcal/mol
GGGTCCACGTGCTTGG	-0.08 kcal/mol
TGGGACACGTGGTGCC	0.01 kcal/mol
GGGGGCACGTGATGAC	-0.04 kcal/mol
